Laboratory results as given in publication PMC5895051.
These are yes or no findings as the source states them, for the method shown. Binding seen in cells or lysates may run through a third protein. Some binding calls cover weakened binding; strength is not graded here. For some of these results: Where a sequence is shown, tags or fusion partners need not be part of it. Each block holds one binder with its values, some of them ahead of it.

How the values were obtained:
[1] = biological target: GST-ZMYND10, full-length protein (UniProt O75800); assay: pull-down; purified GST-ZMYND10 (full length) or GST-MYND as bait; lysates from mTECs; immunoblot; only the target purified
[2] = biological target: FLAG-tagged ZMYND10 (zinc finger MYND-type-containing 10), O75800; assay: co-IP; constructs cotransfected into HEK 293T cells; immunoprecipitated with anti-FLAG M2 or anti-c-Myc affinity gels, immunoblot; conditions: remark: other sources report otherwise
[3] = biological target: T1, ZMYND10-p.Gln366* mutant protein (human) (UniProt O75800); assay: as above
T1 sequence: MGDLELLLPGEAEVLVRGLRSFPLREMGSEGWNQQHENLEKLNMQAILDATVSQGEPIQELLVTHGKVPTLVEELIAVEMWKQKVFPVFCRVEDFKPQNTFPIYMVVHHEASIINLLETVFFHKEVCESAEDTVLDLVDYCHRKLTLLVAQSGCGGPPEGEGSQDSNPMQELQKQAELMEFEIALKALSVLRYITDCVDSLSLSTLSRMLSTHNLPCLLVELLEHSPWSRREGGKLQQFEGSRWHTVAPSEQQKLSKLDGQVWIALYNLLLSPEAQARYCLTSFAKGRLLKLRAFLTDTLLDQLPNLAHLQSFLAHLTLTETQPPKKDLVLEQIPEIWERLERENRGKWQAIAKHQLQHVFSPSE

[4] = biological target: FLAG-tagged ZMYND10 (zinc finger MYND-type-containing 10) (UniProt O75800); assay: as above

binding [1]: binds
B1: LRRC6, endogenous in mouse tracheal epithelial cells (protein, UniProt O88978 1-473)
chain: MGRITEDLIRRNAEHNDCVIFSLEELSLHQQEIERLEHIDKWCRDLKILYLQNNLIGKIENVSKLKKLEYLNLALNNIERIENLEGCEWLTKLDLTVNFIGELSSVKTLTHNIHLKELFLMGNPCADFDGYRQFVVVTLQQLKWLDGKEIERSERIQALQNYTSVEQQIREQEKAYCLRRAKEKEEAQRKLEEENESEDKKKSSTGFDGHWYTDIHTACPSATENQDYPQVPETQEEQHNTKESDDIEDDLAFWNKPSLFTPESRLETLRHMEKQRKAQDKLSEKKKKAKPPRTLITEDGKVLNVNEAKLDFSLKDDEKHNQIILDLAVYRYMDTSLIEVDVQPTYVRVMVKGKPFQLALSTEVQPDRSSAKRSQTTGHLLICMPKVGEMITGGQRTPTSVKTTSTSSREQTNPRKKQIERLEVDPSKHSCPDVSTIVQEKRHRPKRMESQPRDEPSEEDPDFEDNPEVPPLI

binding [1]: binds
B2: IQUB, endogenous in mouse tracheal epithelial cells (protein, UniProt Q8CDK3 1-788)
chain: MSDPEEERVADSTAHYEEAGKVISIPRPSDEAEGSDVMPEQDDEVQELTTESEENVERHSEFSLSTPKSDDSKPREEVTSLGSASGSQDQDYRLLDYQKGEDDELLFLHKIKAIKETLQTSVRESIATVKIVLIPAGQEIIMPFRVDAPFRFLKEHFAHLLHIPHYVLQITHEGIIVGNNESLIQYGIKPQEIVQVEVFSTLPDQYPVRRIEGLSEGSQIITVTIQTSIDRYEEVAVEIIKSDFHKPFLGGFRHKITGLEYHNAGTQTVPRKIPEKDNLFCRDTQTVFQKKKLQQTTNTTSTQMTKIGVYVSNMTDKLLKPGNYFSAAEYHARRLHAVIVIQTSYRRWHAKRYVESLRKQKKLRLEWEEEQELLKIQEKEEWIRMDYYRRHNPKTTEDFELLYNALELWRQEEVEQICHYSSEAERKAALCELLEKETQMIASIGRHRSAARMERQDAAIQAFLDKCSAPNVWRRGDGKTIEMDTQFTIRARELQSIYKCILLKDLSQDERLDILLTLKHTVKEHECKLTQEILELIDREVDLMMRGVKPHNLEGLRKRITTLFIHYIKTPLFNPEVAKYLKVPQDPLKFYDTIYFCHSCQNYLPSVEFSVSPTSHRVYRCRHCINLENETQRRESFLKYKCLLQRLYYSEADYGDNSQIAFLMQLQDIKYLTENIWASQSALSAWDDLNDLVMVRWDKHVEWSPWNCILLTKDESTAHLRLPSIEKGYGHHFVHKIKHKHILAKNYFSQIPTLASLILNDDEVEDIRSKHSTKSPPKIIITRRIQPH

binding [2]: binds
B3: Myc-DNAI1 (dynein axonemal intermediate chain 1), Q9UI46 1-699 (protein)
chain: MIPASAKAPHKQPHKQSISIGRGTRKRDEDSGTEVGEGTDEWAQSKATVRPPDQLELTDAELKEEFTRILTANNPHAPQNIVRYSFKEGTYKPIGFVNQLAVHYTQVGNLIPKDSDEGRRQHYRDELVAGSQESVKVISETGNLEEDEEPKELETEPGSQTDVPAAGAAEKVTEEELMTPKQPKERKLTNQFNFSERASQTYNNPVRDRECQTEPPPRTNFSATANQWEIYDAYVEELEKQEKTKEKEKAKTPVAKKSGKMAMRKLTSMESQTDDLIKLSQAAKIMERMVNQNTYDDIAQDFKYYDDAADEYRDQVGTLLPLWKFQNDKAKRLSVTALCWNPKYRDLFAVGYGSYDFMKQSRGMLLLYSLKNPSFPEYMFSSNSGVMCLDIHVDHPYLVAVGHYDGNVAIYNLKKPHSQPSFCSSAKSGKHSDPVWQVKWQKDDMDQNLNFFSVSSDGRIVSWTLVKRKLVHIDVIKLKVEGSTTEVPEGLQLHPVGCGTAFDFHKEIDYMFLVGTEEGKIYKCSKSYSSQFLDTYDAHNMSVDTVSWNPYHTKVFMSCSSDWTVKIWDHTIKTPMFIYDLNSAVGDVAWAPYSSTVFAAVTTDGKAHIFDLAINKYEAICNQPVAAKKNRLTHVQFNLIHPIIIVGDDRGHIISLKLSPNLRKMPKEKKGQEVQKGPAVEIAKLDKLLNLVREVKIKT

binding [3]: no binding
B4: Myc-DNAI1 (dynein axonemal intermediate chain 1) (protein, UniProt Q9UI46 1-699)
chain: B3 chain

binding [4]: binds
B5: Myc-tagged IQUB (IQ motif and ubiquitin domain-containing protein) (protein, UniProt Q8NA54 1-791)
chain: MSNQQEKYEAQNIVNSTEESDDAFDTVTIPVPSEEPQESDQTEEHESGIEQFSESHAIHVEEQSDQSFSSLEPDNEQLMEEVISPRQVSYTPQHHEKQYAMQRPNDDSLAFLDKIKSVKESLQESVEDSLATVKVVLIPVGQEIVIPFKVDTILKYLKDHFSHLLGIPHSVLQIRYSGKILKNNETLVQHGVKPQEIVQVEIFSTNPDLYPVRRIDGLTDVSQIITVTVQTGLDQYQQVPVEIVKSDFHKPFLGGFRHKVTGVEYHNAGTQTVPKRIPERLSIFCRDTQTVFQKKNLQQTTNTTSTQMTNIGVYVSNMTDKLVTPGKYFSAAEYHAQRLKAVIVIQTYYRQWHAKIFVENLRRQKSLRLEWETQQELRKIREKEEWIKLDYHRRHNPKTNEDFEFLYNALEFWRQEELTRINQSFTGAERKAALCELLEKETQIIASIGRHRYIAYMANQEAAIQAFLDKCSAPKIWRTPNGKTIEMDTQFTIRARELQNIYKCIMLKNISQDERLDVLLTLKHTVKEHECKLTQEILELIDREVDLMMRGVKHHNLEGLRKRIATLFFHYIKTPLFNPEVAKYLKVPQDPLKFYKKIYFCHSCQLYLPSTEFSVSSTSRRIYRCRNCINLQNEAQKRESFLKYKCLLQQLYYTEADYEDDSKIAFLMQLQDIQYLTENIWASQSVLSACDNLSDLVMVRWNKSLEWSPWNCILLTKDEAAAHLKLTSIEEGYERSFIHKIKHKHILAKNYFSQVPVLASFILDDGEIDEIRWKYHSDTTPKIIESQRPPH

binding [1]: binds
B6: DNAI1, endogenous in mouse tracheal epithelial cells (protein, UniProt Q8C0M8 1-701)
chain: MPSKQIRKQSISVTRGARRRDEDSGTDVGEGTDEWSQSKATVRPPDQLELTDAELKEEFTRILTANNPHAPQNIVRYSFKEGTYKLIGFVNQMAVHFSQVGNLIPKDSDEGRRQHYRDEMVAGSQESIKVVTSEAENLEEEEEPKEGEGEAEAEAEAGSQTDIPAAAETTEKVIEEELMAPVQPKERKLTNQFNFSERASQTFNNPLRDRECQMEPPPRTNFSATANQWEIYDAYVDELEKQEKTKEKEKAKTPVAKKTEKMAMRKLTSMESQSDDITKVTQAAKIVERMVNQNTYDDVAQDFKYYEDTADEYRDQEGTLLPLWKFQNDKAKRLAVTALCWNPKYKDLFAVGHGSYDFMKQSRGMLLLYSMKNPSFPEYMFSSESGIMCLDVHVDHPYLVVVGYYDGNVAIYNLKKPHSQPCFRSTSKSGKHTDPVWQVKWQKDDMDHNLNFFSVSSDGRIVSWTLVKSELVHIDIIKLKTEGSTTEIPEGLQLHTVGCGTAFDFHKEIDYMFLVGTEEGKIYKCSKSYSSQFLDTYDAHNMAVDAVLWNPYHTKVFMSCSSDWTVKIWDHTIKTPMFIYDLNSAVGDVAWAPYSSTVFAAVTTDGKAHVFDLAVNKYEAICNQPVVAKKKNKITHVQFNPIHPIIIVGDDRGHIICLKLSPNLRKMPKEKKGQEVQKGPAVEIAKLDKLLNLVREVKTKT

binding [4]: binds
B7: DYX1C1-V5 (dyslexia susceptibility 1 candidate 1) (protein, UniProt Q8WXU2 1-420)
chain: MPLQVSDYSWQQTKTAVFLSLPLKGVCVRDTDVFCTENYLKVNFPPFLFEAFLYAPIDDESSKAKIGNDTIVFTLYKKEAAMWETLSVTGVDKEMMQRIREKSILQAQERAKEATEAKAAAKREDQKYALSVMMKIEEEERKKIEDMKENERIKATKALEAWKEYQRKAEEQKKIQREEKLCQKEKQIKEERKKIKYKSLTRNLASRNLAPKGRNSENIFTEKLKEDSIPAPRSVGSIKINFTPRVFPTALRESQVAEEEEWLHKQAEARRAMNTDIAELCDLKEEEKNPEWLKDKGNKLFATENYLAAINAYNLAIRLNNKMPLLYLNRAACHLKLKNLHKAIEDSSKALELLMPPVTDNANARMKAHVRRGTAFCQLELYVEGLQDYEAALKIDPSNKIVQIDAEKIRNVIQGTELKS

binding [4]: binds
B8: Myc-C21ORF59 (chromosome 21 open reading frame 59) (protein, UniProt P57076 1-290)
chain: MVLLHVKRGDESQFLLQAPGSTELEELTVQVARVYNGRLKVQRLCSEMEELAEHGIFLPPNMQGLTDDQIEELKLKDEWGEKCVPSGGAVFKKDDIGRRNGQAPNEKMKQVLKKTIEEAKAIISKKQVEAGVCVTMEMVKDALDQLRGAVMIVYPMGLPPYDPIRMEFENKEDLSGTQAGLNVIKEAEAQLWWAAKELRRTKKLSDYVGKNEKTKIIAKIQQRGQGAPAREPIISSEEQKQLMLYYHRRQEELKRLEENDDDAYLNSPWADNTALKRHFHGVKDIKWRPR

binding [4]: no binding
B9: Myc-DNAI2 (dynein axonemal intermediate chain 2) (protein, UniProt Q9GZS0 1-605)
chain: MEIVYVYVKKRSEFGKQCNFSDRQAELNIDIMPNPELAEQFVERNPVDTGIQCSISMSEHEANSERFEMETRGVNHVEGGWPKDVNPLELEQTIRFRKKVEKDENYVNAIMQLGSIMEHCIKQNNAIDIYEEYFNDEEAMEVMEEDPSAKTINVFRDPQEIKRAATHLSWHPDGNRKLAVAYSCLDFQRAPVGMSSDSYIWDLENPNKPELALKPSSPLVTLEFNPKDSHVLLGGCYNGQIACWDTRKGSLVAELSTIESSHRDPVYGTIWLQSKTGTECFSASTDGQVMWWDIRKMSEPTEVVILDITKKEQLENALGAISLEFESTLPTKFMVGTEQGIVISCNRKAKTSAEKIVCTFPGHHGPIYALQRNPFYPKNFLTVGDWTARIWSEDSRESSIMWTKYHMAYLTDAAWSPVRPTVFFTTRMDGTLDIWDFMFEQCDPTLSLKVCDEALFCLRVQDNGCLIACGSQLGTTTLLEVSPGLSTLQRNEKNVASSMFERETRREKILEARHREMRLKEKGKAEGRDEEQTDEELAVDLEALVSKAEEEFFDIIFAELKKKEADAIKLTPVPQQPSPEEDQVVEEGEEAAGEEGDEEVEEDLA

binding [4]: binds
B10: Myc-TCTEX1D1 (Tctex1 domain-containing D1) (protein, UniProt Q8N7M0 1-179)
chain: MMMSDNAKGRAAHSWKKRGSISSLSNHEFWRKEIHGRIKDSMSTVSYMEEPSQRDDISRLTVQMENTYQLGPPKHFPVVTVNHILKDVVTSYLQVEEYEPELCRQMTKTISEVIKAQVKDLMIPRYKLIVIVHIGQLNRQSILIGSRCLWDPKSDTFSSYVFRNSSLFALANVYAVYLE
